In PubChem BioAssay AID360 (National Center for Advancing Translational Sciences (NCATS), 2006) one finds Potency data, which are given here for 90 compounds.

Hit rate of the full screen: of about 48,000 compounds, about 550 (1.1%) were called active. About 4% were inconclusive and are not listed. Rule as the data show it: active = potency below about 15 µM; inconclusive = mostly about 16 µM to 33 µM; inactive = weaker than that. This is one part of the list.
Potency is read from the fitted curve at half-maximal effect.

The assay addresses Lysosomal acid glucosylceramidase (Homo sapiens) (UniProt P04062). Description: Glucocerebrosidase.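 Also: the screen sought inhibitors.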 To be noted: purified enzyme, resorufin glucoside fluorescence (screen aimed at inhibitors), 20 min. In outline: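 Normal human glucocerebrosidase (0.2 nM final) was assayed with resorufin β-D-glucopyranoside (30 uM final) in 50mM citric acid/KH2PO4, 10mM sodium taurocholate, 0.01% tween-20, pH 5.9. Compounds were titrated; fluorescence (Ex 548, Em 600) read after 20 min at RT.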
Chain of UniProt P04062 (P04062 whole entry, looked up): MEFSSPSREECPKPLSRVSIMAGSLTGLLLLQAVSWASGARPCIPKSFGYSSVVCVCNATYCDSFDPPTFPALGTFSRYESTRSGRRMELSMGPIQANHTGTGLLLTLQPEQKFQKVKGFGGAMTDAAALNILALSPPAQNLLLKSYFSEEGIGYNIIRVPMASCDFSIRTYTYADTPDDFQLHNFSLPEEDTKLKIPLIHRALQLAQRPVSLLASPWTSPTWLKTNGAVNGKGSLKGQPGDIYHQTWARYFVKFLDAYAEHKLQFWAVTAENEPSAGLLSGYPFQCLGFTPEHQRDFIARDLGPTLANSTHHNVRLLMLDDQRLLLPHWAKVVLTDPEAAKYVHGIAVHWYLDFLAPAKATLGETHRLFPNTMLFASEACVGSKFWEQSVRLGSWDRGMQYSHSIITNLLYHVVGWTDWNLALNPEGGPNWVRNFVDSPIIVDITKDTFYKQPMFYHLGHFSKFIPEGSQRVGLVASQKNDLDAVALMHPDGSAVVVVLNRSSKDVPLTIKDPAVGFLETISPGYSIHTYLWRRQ
As for `Cn1c(=O)c2c(nc(N3CCCCCC3)n2CC(=O)c2ccc(Br)cc2)n(C)c1=O`, the Potency was inactive: > 76.9 µM.
The value for `O=S(=O)(Nc1ccccn1)c1ccc(Oc2ccccc2)cc1` was inactive: > 76.9 µM.
For `Cc1cc(C)c2[nH]c(=O)c(CN(CC3CCCO3)C(=O)C3CCCO3)cc2c1` (stereo not given), the Potency was inactive: > 76.9 µM.
Under `O=C(NC1CCN(Cc2ccccc2)CC1)C1CCN(S(=O)(=O)c2cccc3nsnc23)CC1` stands inactive: > 76.9 µM.
The value for `CCN(CC)S(=O)(=O)c1cccc(-c2nnc(SCCCC(=O)c3ccccc3)o2)c1` was inactive: > 76.9 µM.
The value for `C=CCn1c(SCC(=O)Nc2cc(C)cc(C)c2)nnc1-c1cnccn1` was inactive: > 76.9 µM; that for `O=C(Nc1ccc2c(c1)OCO2)[C@@H]1[C@@H]2C(=O)N(C3CCCCC3)C(=O)[C@@H]2C2c3ccccc3C=CN21` (stereo not given in full) was inactive: > 76.9 µM; that for `COc1ccc(NCc2cc3cc(OC)ccc3[nH]c2=O)cc1` was inactive: > 76.9 µM.
`COCCCn1c(SCC(=O)OC2CCCCC2)nnc1-c1ccco1`: the Potency is inactive: > 76.9 µM.
The value for `O=C(C1CCC(C(=O)N2CCCC2)CC1)N1CCCC1` (stereo not given) was inactive: > 76.9 µM.
In the case of `COc1ccccc1Nc1ncnc2c1oc1ccccc12`, the Potency result was “inactive”.
The value for `Cc1nc2c(c(=O)n1Cc1ccco1)c1nc3ccccc3nc1n2Cc1ccccc1` was inactive: > 76.9 µM; that for `CCc1nnc2n1N=C(c1ccc(-c3ccc(Cl)cc3Cl)o1)CS2` was inactive: > 76.9 µM; that for `O=C1NC(NS(=O)(=O)c2ccccc2)(C(F)(F)F)C(=O)N1Cc1cccnc1` (stereo not given) was inactive: > 76.9 µM.
The value for `Cn1nnc2cc(NC(=O)N3CC4(C)CC3CC(C)(C)C4)ccc21` (stereo not given) was inactive: > 76.9 µM.
Under `CCOC(=O)c1c(C)oc(NC(=O)COc2ccc(Cl)cc2C)c1C#N` stands inactive: > 76.9 µM.
In the case of `COc1ccc(-c2cc(C(=O)N3CCN(C(c4ccccc4)c4ccccc4)CC3)no2)cc1`, the Potency was inactive: > 76.9 µM.
The value for `Cc1cc(C)c(NC(=O)NC(=O)c2cccc(F)c2)c(C)n1` was “inactive”; that for `CCOC(=O)c1ccc2c(c1)nc(SC/C(O)=C(\C#N)c1nc3ccccc3[nH]1)n2CC` was inactive: > 76.9 µM; that for `CC1Cc2ccccc2N1C(=O)C1CCCN(S(=O)(=O)c2cccc3nsnc23)C1` (stereo not given) was inactive: > 76.9 µM.
Under `CC(C)CCOc1ccc(C2(C)NC(=O)N(CN3CCOCC3)C2=O)cc1` (stereo not given) stands inactive: > 76.9 µM; under `CCn1c(SCC(N)=O)nc2ccccc2c1=O`, inactive: > 76.9 µM.
Under `COc1ccccc1CN1C(=O)[C@@H]2C(CC(N)=O)NC3(C(=O)Nc4c3ccc(Cl)c4C)[C@@H]2C1=O` (stereo not given in full) stands inactive: > 76.9 µM; under `CCn1c(SCC(=O)Nc2sc(C)c(C)c2C#N)nnc1C(C)C`, inactive: > 76.9 µM; under `N#Cc1nc(COc2ccccc2)oc1NCCN1CCOCC1`, inactive: > 76.9 µM.
With `Cn1c(=O)c2c(nc(SCC(=O)N3CCc4ccccc4C3)n2C)n(C)c1=O`, the Potency is inactive: > 76.9 µM.
The value for `Cc1cc(C)c(S(=O)(=O)Nc2cccc3nsnc23)c(C)c1` was inactive: > 76.9 µM.
Under `COC(=O)C1=C(C)NC2=C(C(=O)CCC2)C1c1cccs1` (stereo not given) stands inactive: > 76.9 µM; under `Cc1cc(NC(=O)c2cc(C)on2)n(-c2ccccc2)n1`, inactive: > 76.9 µM.
The value for `CCc1ccc(OCc2ccc(C(=O)NCc3ccccn3)o2)cc1` was inactive: > 76.9 µM.
For `O=C(c1ccccc1)c1c[nH]c2cc3c(cc2c1=O)OCCO3`, the Potency is inactive: > 76.9 µM.
As for `O=C(CSc1ncccc1C(=O)O)NCc1ccc(F)cc1`, the Potency was inactive: > 76.9 µM.
With `CCOC(=O)CSc1nnc(CNC(=O)c2cccs2)n1CCc1ccccc1`, the Potency is inactive: > 76.9 µM.
The value for `CC(=O)N1CCc2[nH]c3ccccc3c2C1` was inactive: > 76.9 µM; that for `Cc1noc(C)c1CSc1nnc2scc(-c3ccc(Cl)cc3)n12` was inactive: > 76.9 µM; that for `CCc1ccc(NC2=NC(C(=O)c3ccccc3)CC(=O)N2)cc1` (stereo not given) was inactive: > 76.9 µM.
Under `O=C(CSc1nnc(CN2CCOCC2)n1-c1ccc(Cl)cc1)Nc1cc(Cl)ccc1O` stands “inactive”; under `Cc1nc2cc(-c3ccccc3)ccc2o1`, inactive: > 76.9 µM.
The value for `CCCCN(C)CCNC(=O)c1c[nH]c2ccc(S(=O)(=O)N(CC)CC)cc2c1=O` was inactive: > 76.9 µM; that for `CN1CCN(C(=O)N2CCNC2=O)CC1` was inactive: > 76.9 µM; that for `Clc1ccc(-c2nnc(N3CCCC3)nn2)cc1` was inactive: > 76.9 µM.
As for `N#CCSc1nnc2ccc3ccccc3n12`, the Potency is inactive: > 76.9 µM.
Under `CCOC(=O)c1ccc(NC(=O)COc2ccc(-n3cnnn3)cc2)cc1` stands inactive: > 76.9 µM; under `COc1ccccc1CNC(=O)Cn1cnc2ccccc2c1=O`, inactive: > 76.9 µM; under `Cc1cc(C)nc(N2CCC(C(=O)NC3CCCc4ccccc43)CC2)n1` (stereo not given), inactive: > 76.9 µM.
Under `C=C(C)Cn1c(SCC)nc2ccccc2c1=O` stands inactive: > 76.9 µM; under `Cc1cc(NC(=O)CN2CCCCCCC2)no1`, inactive: > 76.9 µM.
Regarding `O=C(N1CCOCC1)N1CCCC(c2nc(-c3cccs3)no2)C1` (stereo not given), the Potency is inactive: > 76.9 µM.
Under `Cc1nc(NCc2ccco2)c(C#N)c2c1COC(C)(C)C2` stands inactive: > 76.9 µM; under `COc1ccc(-c2coc3c(CN4CCCCC4)c(O)c(CN4CCCCC4)c(O)c3c2=O)cc1`, inactive: > 76.9 µM.
Under `C=CCSc1nnc(-c2ccccc2NC(C)=O)c(=O)[nH]1` stands inactive: > 76.9 µM.
In the case of `O=C(Nc1nnc(CC(=O)N2CCOCC2)s1)C1COc2ccccc2O1` (stereo not given), the Potency is inactive: > 76.9 µM.
With `O=C1CCCN1CCCNc1ccc(S(=O)(=O)N2CCCCC2)cn1`, the Potency is inactive: > 76.9 µM.
Under `CCOC(=O)C1CCN(S(=O)(=O)c2cccc(-c3cn4cccc(C)c4n3)c2)CC1` stands inactive: > 76.9 µM.
The value for `CCOC(=O)Cn1c2ccccc2c2nc3ccccc3nc21` was inactive: > 76.9 µM.
Under `COCCNC(=O)CN1CCC(n2c(C)nc3cc(C(F)(F)F)ccc32)CC1` stands inactive: > 76.9 µM; under `Cc1cc(OCC(O)CN2CCN(C)CC2)ccc1C(C)C` (stereo not given), inactive: > 76.9 µM.
Turning to `Cc1cccc(Nc2nc(-c3ccccn3)cs2)n1`, the Potency entry is “inactive”.
The value for `CCOC(=O)Nc1ccc2c(c1)nc(CN1CCOCC1)n2C` was inactive: > 76.9 µM; that for `CC(C)CN(C(=O)COC(=O)c1ccc2c(c1)NC(=O)CS2)C1CCS(=O)(=O)C1` (stereo not given) was inactive: > 76.9 µM.
Under `COc1ccc(-n2c(C)nc3c(cnn3-c3ccccc3)c2=O)cc1` stands inactive: > 76.9 µM.
The value for `O=C(NCCCN1CCN(c2cccc(Cl)c2)CC1)c1nc(-c2ccncc2)no1` was inactive: > 76.9 µM; that for `COC(=O)c1ccc(CSc2nc3c(cnn3-c3ccc(C)c(C)c3)c(=O)[nH]2)o1` was active: 13.9 µM; that for `COc1ccccc1-c1cc(C(=O)Nc2cc(C)n(Cc3ccc(Cl)cc3)n2)no1` was inactive: > 76.9 µM.
With `CCc1ccccc1N(CC(=O)Nc1cccc(N(C)S(C)(=O)=O)c1)S(C)(=O)=O`, the Potency is inactive: > 76.9 µM.
The value for `COc1cc2c(cc1OC)-c1cc(NC3CCCCCCC3)nc(=O)n1CC2` was inactive: > 76.9 µM; that for `Cn1c(SCc2nc3ccccc3[nH]2)nnc1-c1cccs1` was inactive: > 76.9 µM.
Under `Cc1nnc(SCC(=O)NCc2ccco2)[nH]c1=O` stands inactive: > 76.9 µM.
Take `COc1ccc(Cl)cc1S(=O)(=O)N1CCN(C(=O)COc2ccccc2)CC1`: the Potency was inactive: > 76.9 µM.
Under `CN1C(=C2C(=O)OC(C)(C)OC2=O)Sc2ccccc21` stands “inactive”; under `COc1ccc(C(=O)Nc2ccc(S(=O)(=O)Nc3onc(C)c3C)cc2)cc1OC`, inactive: > 76.9 µM.
Under `O=c1[nH]c2cc3c(cc2cc1C(c1nnnn1Cc1ccccc1)N1CCCc2ccccc21)OCO3` (stereo not given) stands inactive: > 76.9 µM; under `CCN(CC)C(=O)C1=C(C)NC(=O)NC1c1c(F)cccc1Cl` (stereo not given), inactive: > 76.9 µM.
For the compound `CCc1c(C)nc2ncnn2c1NCCc1ccc(OC)c(OC)c1`, the Potency result was “inactive”.
Regarding `O=C(CCC(=O)NC1CCN(Cc2ccccc2)CC1)NCc1ccco1`, the Potency was inactive: > 76.9 µM.
The value for `CC1N/C(=C\C(=O)c2ccccc2)N(O)C1(C)C` (stereo not given) was inactive: > 76.9 µM; that for `CSc1nncc(-c2ccc(F)c(F)c2)n1` was inactive: > 76.9 µM.
Under `FC(F)(F)c1nnc2sc(-c3cccs3)nn12` stands inactive: > 76.9 µM; under `COCCOC(=O)c1c(C)oc2ccc(NS(=O)(=O)c3ccc(C(=O)O)cc3)cc12`, inactive: > 76.9 µM.
For the compound `Fc1ccc(-c2noc(C3CCN(Cc4cccnc4)CC3)n2)cc1`, the Potency was inactive: > 76.9 µM.
The value for `COCCN1C(=O)C(=O)/C(=C(/O)c2cccc(OC)c2)C1c1ccco1` (stereo not given) was inactive: > 76.9 µM; that for `CC(=O)Nc1c(C(=O)c2ccc(F)cc2)oc2ccccc12` was inactive: > 76.9 µM.
Under `O=c1c2ccccc2nc(SCc2cn3ccsc3n2)n1-c1ccccc1F` stands inactive: > 76.9 µM; under `CCOC(=O)c1cccc(S(=O)(=O)N(CCO)Cc2cc3cc(OC)ccc3[nH]c2=O)c1`, inactive: > 76.9 µM; under `O=C(CSc1nnc2scc(-c3ccccc3)n12)Nc1ccc2c(c1)OCCO2`, inactive: > 76.9 µM.
Under `CCOc1ccc(OCC)c(NC(=O)CSc2nc3c(c(=O)n(C)c(=O)n3C)n2C)c1` stands inactive: > 76.9 µM; under `Cc1cccc(NC(=O)CSc2n[nH]c(-c3ccncc3)n2)c1`, inactive: > 76.9 µM.
Turning to `O=C1c2ccccc2C(=O)N1CCN1CCCCC1`, the Potency is inactive: > 76.9 µM.
The value for `O=C(NCCC1=CCCCC1)c1ccc(F)c(S(=O)(=O)N2CCOCC2)c1` was inactive: > 76.9 µM; that for `COCCNC(=O)C1CCCN(c2ncccn2)C1` (stereo not given) was inactive: > 76.9 µM.
